# Some of the results follow.
# Legend:
# Experiment in all cases: glycan array binding signal (z-score within array); higher = stronger binding
# Details in all cases: glycan notation: IUPAC condensed, linker removed
# [1] = molecular target: Gal(b1-4)GlcNAc(b1-3)Gal(b1-4)[Fuc(a1-3)]GlcNAc(b1-3)Gal(b1-4)[Fuc(a1-3)]GlcNAc
# Summary of the method: (§1)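 Glycan array data were curated from 3228 arrays in the Consortium for Functional Glycomics database and kept only where the protein sequence was available. Glycan names were converted to IUPAC-condensed notation, and columns mapping to the same glycan were averaged. The binding signal is a within-array Z-score, averaged across arrays of the same protein sequence at different concentrations or buffers and across linkers. Negative Z-scores can be read as non-binding.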
# [2] = molecular target: Gal(b1-4)GlcNAc(b1-3)GalNAc
# Summary of the method: as §1
# [3] = molecular target: Gal(b1-4)GlcNAc(b1-3)[Gal(b1-4)GlcNAc(b1-6)]Gal(b1-4)GlcNAc
# Summary of the method: as §1
# [4] = molecular target: Gal(b1-4)GlcNAc(b1-3)[Gal(b1-4)GlcNAc(b1-6)]GalNAc
# Summary of the method: as §1
# [5] = molecular target: Gal(b1-4)GlcNAc(b1-3)[GlcNAc(b1-6)]Gal(b1-4)GlcNAc
# Summary of the method: as §1
# [6] = molecular target: Gal(b1-4)GlcNAc(b1-6)Gal(b1-4)GlcNAc
# Summary of the method: as §1
# [7] = molecular target: Gal(b1-4)GlcNAc(b1-6)GalNAc
# Summary of the method: as §1
# [8] = molecular target: Gal(b1-4)GlcNAc(b1-6)[Gal(b1-3)]GalNAc
# Summary of the method: as §1
# Gal3S(b1-3)GalNAc = molecular target: Gal3S(b1-3)GalNAc
# Summary of the method: as §1
# Gal3S(b1-3)GlcNAc = molecular target: Gal3S(b1-3)GlcNAc
# Summary of the method: as §1
# [9] = molecular target: Gal3S(b1-3)[Fuc(a1-4)]GlcNAc
# Summary of the method: as §1
# Gal3S(b1-4)Glc = molecular target: Gal3S(b1-4)Glc
# Summary of the method: as §1
# Gal3S(b1-4)Glc6S = molecular target: Gal3S(b1-4)Glc6S
# Summary of the method: as §1
# Gal3S(b1-4)GlcNAc = molecular target: Gal3S(b1-4)GlcNAc
# Summary of the method: as §1
# Gal3S(b1-4)GlcNAc6S = molecular target: Gal3S(b1-4)GlcNAc6S
# Summary of the method: as §1
# [10] = molecular target: Gal3S(b1-4)[Fuc(a1-3)]Glc
# Summary of the method: as §1
# [11] = molecular target: Gal3S(b1-4)[Fuc(a1-3)]Glc6S
# Summary of the method: as §1
# Gal3S4S(b1-4)GlcNAc = molecular target: Gal3S4S(b1-4)GlcNAc
# Summary of the method: as §1
# Gal3S6S(b1-4)GlcNAc = molecular target: Gal3S6S(b1-4)GlcNAc
# Summary of the method: as §1
# Gal3S6S(b1-4)GlcNAc6S = molecular target: Gal3S6S(b1-4)GlcNAc6S
# Summary of the method: as §1
# Gal4S(b1-4)GlcNAc = molecular target: Gal4S(b1-4)GlcNAc
# Summary of the method: as §1
# Gal4S6S(b1-4)GlcNAc = molecular target: Gal4S6S(b1-4)GlcNAc
# Summary of the method: as §1
# Gal6S(b1-4)Glc = molecular target: Gal6S(b1-4)Glc
# Summary of the method: as §1
# Gal6S(b1-4)Glc6S = molecular target: Gal6S(b1-4)Glc6S
# Summary of the method: as §1
# Gal6S(b1-4)GlcNAc = molecular target: Gal6S(b1-4)GlcNAc
# Summary of the method: as §1
# Gal6S(b1-4)GlcNAc6S = molecular target: Gal6S(b1-4)GlcNAc6S
# Summary of the method: as §1
# GalNAc(a1-3)Gal = molecular target: GalNAc(a1-3)Gal
# Summary of the method: as §1
# GalNAc(a1-3)GalNAc = molecular target: GalNAc(a1-3)GalNAc
# Summary of the method: as §1
# [12] = molecular target: GalNAc(a1-3)GalNAc(a1-3)Gal(a1-4)Gal(b1-4)GlcNAc
# Summary of the method: as §1
# GalNAc(b1-3)Gal = molecular target: GalNAc(b1-3)Gal
# Summary of the method: as §1
# [13] = molecular target: GalNAc(b1-3)Gal(a1-4)Gal(b1-4)GlcNAc
# Summary of the method: as §1
# [14] = molecular target: GalNAc(b1-3)Gal(a1-4)Gal(b1-4)GlcNAc(b1-3)Gal(b1-4)Glc
# Summary of the method: as §1
# [15] = molecular target: GalNAc(b1-3)Gal(a1-6)Gal(b1-4)Glc
# Summary of the method: as §1
# GalNAc(b1-3)GalNAc = molecular target: GalNAc(b1-3)GalNAc
# Summary of the method: as §1
# GalNAc(b1-4)GlcNAc = molecular target: GalNAc(b1-4)GlcNAc
# Summary of the method: as §1
# [16] = molecular target: GalNAc(b1-4)GlcNAc(b1-2)Man(a1-3)[GalNAc(b1-4)GlcNAc(b1-2)Man(a1-6)]Man(b1-4)GlcNAc(b1-4)GlcNAc
# Summary of the method: as §1
# Glc(a1-4)Glc = molecular target: Glc(a1-4)Glc
# Summary of the method: as §1
# Glc(a1-6)Glc(a1-6)Glc = molecular target: Glc(a1-6)Glc(a1-6)Glc
# Summary of the method: as §1
# Glc(b1-4)Glc = molecular target: Glc(b1-4)Glc
# Summary of the method: as §1
# Glc(b1-6)Glc = molecular target: Glc(b1-6)Glc
# Summary of the method: as §1
# GlcA(b1-3)Gal = molecular target: GlcA(b1-3)Gal
# Summary of the method: as §1
# GlcA(b1-3)GlcNAc = molecular target: GlcA(b1-3)GlcNAc
# Summary of the method: as §1
# GlcA(b1-6)Gal = molecular target: GlcA(b1-6)Gal
# Summary of the method: as §1
# [17] = molecular target: GlcNAc(a1-3)Gal(b1-4)GlcNAc
# Summary of the method: as §1
# [18] = molecular target: GlcNAc(a1-4)Gal(b1-3)GlcNAc
# Summary of the method: as §1
binder,measurement,setting,value
SSL (Salmo salar) (protein) TGAKGAEEGVVPAETRNQCPTGWFQFGSRCFMFVETARSWPLAERHCVSLGANLASVHSSADDQFLQAIAGCKTGAFSTTWIGGFDAVQDRLWFWSDGSEFDYQNWAKGEPNNSGGREPCIVINWGDEYRWNDIKCGNSFPSVCSKRICEIQKN,glycan array binding signal (z-score),[1],-0.175
same,glycan array binding signal (z-score),[2],-0.172
same,glycan array binding signal (z-score),[3],-0.183
same,glycan array binding signal (z-score),[4],-0.174
same,glycan array binding signal (z-score),[5],-0.155
same,glycan array binding signal (z-score),[6],-0.179
same,glycan array binding signal (z-score),[7],-0.168
same,glycan array binding signal (z-score),[8],-0.157
same,glycan array binding signal (z-score),Gal3S(b1-3)GalNAc,-0.168
same,glycan array binding signal (z-score),Gal3S(b1-3)GlcNAc,-0.173
same,glycan array binding signal (z-score),[9],-0.159
same,glycan array binding signal (z-score),Gal3S(b1-4)Glc,-0.132
same,glycan array binding signal (z-score),Gal3S(b1-4)Glc6S,-0.133
same,glycan array binding signal (z-score),Gal3S(b1-4)GlcNAc,-0.143
same,glycan array binding signal (z-score),Gal3S(b1-4)GlcNAc6S,-0.156
same,glycan array binding signal (z-score),[10],-0.133
same,glycan array binding signal (z-score),[11],-0.088
same,glycan array binding signal (z-score),Gal3S4S(b1-4)GlcNAc,-0.15
same,glycan array binding signal (z-score),Gal3S6S(b1-4)GlcNAc,-0.156
same,glycan array binding signal (z-score),Gal3S6S(b1-4)GlcNAc6S,-0.152
same,glycan array binding signal (z-score),Gal4S(b1-4)GlcNAc,-0.166
same,glycan array binding signal (z-score),Gal4S6S(b1-4)GlcNAc,-0.148
same,glycan array binding signal (z-score),Gal6S(b1-4)Glc,-0.154
same,glycan array binding signal (z-score),Gal6S(b1-4)Glc6S,-0.147
same,glycan array binding signal (z-score),Gal6S(b1-4)GlcNAc,-0.174
same,glycan array binding signal (z-score),Gal6S(b1-4)GlcNAc6S,-0.162
same,glycan array binding signal (z-score),GalNAc(a1-3)Gal,-0.165
same,glycan array binding signal (z-score),GalNAc(a1-3)GalNAc,-0.169
same,glycan array binding signal (z-score),[12],-0.185
same,glycan array binding signal (z-score),GalNAc(b1-3)Gal,-0.143
same,glycan array binding signal (z-score),[13],-0.176
same,glycan array binding signal (z-score),[14],-0.183
same,glycan array binding signal (z-score),[15],-0.178
same,glycan array binding signal (z-score),GalNAc(b1-3)GalNAc,-0.159
same,glycan array binding signal (z-score),GalNAc(b1-4)GlcNAc,-0.162
same,glycan array binding signal (z-score),[16],-0.165
same,glycan array binding signal (z-score),Glc(a1-4)Glc,2.63
same,glycan array binding signal (z-score),Glc(a1-6)Glc(a1-6)Glc,-0.12
same,glycan array binding signal (z-score),Glc(b1-4)Glc,0.039
same,glycan array binding signal (z-score),Glc(b1-6)Glc,-0.048
same,glycan array binding signal (z-score),GlcA(b1-3)Gal,1.44
same,glycan array binding signal (z-score),GlcA(b1-3)GlcNAc,4.35
same,glycan array binding signal (z-score),GlcA(b1-6)Gal,0.299
same,glycan array binding signal (z-score),[17],0.457
same,glycan array binding signal (z-score),[18],1.56
